In all, about 110,000 compounds went through this assay and about 230 (0.21%) showed an effect of 50% or more. This is one part of the list.
biological target: DPAP1 (Plasmodium falciparum, UniProt Q8IIJ9); test: primary screen, percent inhibition; read by cleavage of a fluorogenic dipeptide substrate; higher = more effect of the substance; parameters: species or system P. falciparum D10 trophozoite lysates; single well
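Further: 30 min substrate incubation versus DMSO and 10 µM JCP410 controls.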

Sequence of DPAP1 (Q8IIJ9 whole entry, looked up): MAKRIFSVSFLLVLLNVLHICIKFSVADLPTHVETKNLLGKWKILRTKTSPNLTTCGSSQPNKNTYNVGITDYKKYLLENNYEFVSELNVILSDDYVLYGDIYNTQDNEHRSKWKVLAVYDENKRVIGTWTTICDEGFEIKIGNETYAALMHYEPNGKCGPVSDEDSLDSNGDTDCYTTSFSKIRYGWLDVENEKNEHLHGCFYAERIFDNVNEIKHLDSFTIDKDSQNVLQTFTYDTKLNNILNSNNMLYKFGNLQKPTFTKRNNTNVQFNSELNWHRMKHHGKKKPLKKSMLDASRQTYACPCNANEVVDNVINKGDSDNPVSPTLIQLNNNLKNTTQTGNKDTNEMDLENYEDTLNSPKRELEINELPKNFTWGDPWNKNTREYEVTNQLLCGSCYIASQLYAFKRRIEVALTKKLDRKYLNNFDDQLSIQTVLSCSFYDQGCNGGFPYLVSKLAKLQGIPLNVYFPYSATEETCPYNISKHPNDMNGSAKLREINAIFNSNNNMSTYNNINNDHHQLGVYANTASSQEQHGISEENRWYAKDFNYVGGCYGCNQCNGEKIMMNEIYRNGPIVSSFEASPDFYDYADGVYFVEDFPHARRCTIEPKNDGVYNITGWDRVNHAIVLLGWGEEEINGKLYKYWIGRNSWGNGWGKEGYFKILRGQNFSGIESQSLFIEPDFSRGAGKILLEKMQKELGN

Row | Structure (SMILES) | % Inhibition @ 10 uM [%]
1 | CC(=O)[C@@]1(O)C(C)CC2C3CCC4CC(O)CCC4(C)C3CCC21C (stereo partly drawn) | 1.88
2 | CCOC(=O)c1c(C)[nH]c(C)c1S(=O)(=O)N(C)CC(=O)N1CCC(Cc2ccccc2)CC1 | 2.74
3 | CCOC(=O)C1=C(C)NC(=O)NC1c1cn(-c2ccccc2)nc1-c1ccc(OC)c(Cl)c1 (stereo not drawn) | 4.74
4 | CCOC(=O)N1CCN(C2=C(NC(C)=O)C(=O)c3ccccc3C2=O)CC1 | -3.04
5 | CC(C)c1ccc(C2c3c(-c4ccccc4O)n[nH]c3C(=O)N2CC2CCCO2)cc1 (stereo not drawn) | 0.366
6 | COc1ccc(N2CCN(C(=O)CCN3C(=O)c4cccc5cccc(c45)C3=O)CC2)cc1 | 31.6
7 | O=C1NC(=S)N(C(=O)c2ccc(F)cc2)/C1=C/c1ccccc1 | 0.98
8 | O=C(Cn1nc(Cc2cccnc2)c2ccccc2c1=O)N1CCN(c2ccccn2)CC1 | -6.52
9 | COC(=O)C1=C(C)N(C)C(=O)/C1=C\c1ccc(Cl)c(Cl)c1 | -1.6
10 | Cn1nc(C(=O)NC2CCCc3ccccc32)c2c1-c1ccccc1S(=O)(=O)C2 (stereo not drawn) | 6.84
11 | C=CCNC(=O)CN(c1ccc(C)cc1)S(=O)(=O)c1ccc(OC)c(Br)c1 | -4.91
12 | Clc1ccc(-n2nnnc2-c2ccccc2)cc1Cl | -3.14
13 | COC(=O)C1=C(C)N(CC(C)C)C(=O)/C1=C\c1cc(C)n(-c2ccccc2C)c1C | -5.51
14 | Cc1cccc(N2C(=O)C3CC=CC(C)C3C2=O)c1 (stereo not drawn) | 6.1
15 | O=C1CC(N2CCN(Cc3ccccc3)CC2)C(=O)N1c1cccc(Br)c1 (stereo not drawn) | 1.76
16 | O=C(NCCc1ccccc1)c1cc(-c2ccc(F)cc2)on1 | -3.36
17 | COc1ccc(CN2CCN(S(=O)(=O)c3ccccc3)CC2)cc1OC | 2.98
18 | c1ccc(NCC2COc3ccccc3O2)nc1 (stereo not drawn) | 1.43
19 | CC(=O)Nc1sc(C)c(C)c1C#N | 1.41
20 | Cc1ccc(-c2nnc(N3CCCCC3)c3ccccc23)cc1S(=O)(=O)NCC1CCCO1 (stereo not drawn) | 4.18
21 | C=CCOC(=O)C1=C(C)N(CC)C(=O)NC1c1cc(Br)c(O)c(OC)c1 (stereo not drawn) | 8.79
22 | CC(C)C[C@H](NC(=O)Nc1nc(-c2ccccc2)cs1)C(=O)NCC#N | -0.778
23 | O=C(O)C1Cc2c([nH]c3ccccc23)C(c2ccc(Br)cc2)N1 (stereo not drawn) | 4.41
24 | CSc1nn(-c2cc(Oc3ccccc3)nc(C)n2)c(N)c1C#N | -11
25 | Cc1nn(C)cc1C(=O)Nc1ccc2c(c1)CCC2 | -7.3
26 | COc1ccc(C(=O)NCc2ccc(C)cc2)cc1OC | 4.22
27 | O=C(c1cc2c(s1)-c1ccc(Cl)cc1S(=O)(=O)C2)N1CCC2(CC1)OCCO2 | -4.24
